The text below walks through data of PubChem BioAssay AID463173 (ICCB-Longwood Screening Facility, Harvard Medical School, 2010).

Screen size: about 52,000 compounds; about 1,700 (3.3%) were called active. No stated cut-off is given here; in the data, active means survival mostly below about 52% (no sharp cut-off); inactive means mostly above about 56%. The list shows a part of the results.

For this experiment, the system named is Wild type. The experiment is described as follows: growth inhibition of S. aureus wild type versus tarO mutant, primary screen, teichoic acid synthesis inhibitors, RN4220, OD600 (AID 463173). The note with it: S. aureus RN4220 wild type/DeltatarO growth, OD600, 18 h, active compounds read low, screened at 18.75 µg/mL (by protocol).
For the compound `Cc1ccc(NC(=O)CCn2c(=O)c3cccn3c3ccccc32)cc1Cl`, the survival was inactive: 74%.
In the case of `Cc1ccc(C(=O)N2CCN(Cc3cc(=O)n4nc(-c5ccccc5)sc4n3)CC2)cc1`, the survival was inactive: 66%.
Consider `Cc1cc(NC(=O)Nc2nnc(N3CCCCC3)s2)ccc1Br`, for which the survival is inactive: 86%.
To `Cc1cc(C)n(-c2nc3ccccc3nc2Nc2cc(Cl)ccc2C)n1` belongs inactive: 131%; to `Cc1cc(C)c2nc(N(Cc3cccnc3)C(=O)Cc3ccccc3)sc2c1`, inactive: 55%; to `COc1ccccc1CNC(=O)CSc1nc(=O)[nH]c2c1CCCC2`, inactive: 75%.
For `CCN(Cc1ccccc1)C(=O)Cn1c(=O)n(-c2ccc(Cl)c(Cl)c2)c(=O)c2c(C)c(C(=O)N(C)C)sc21` the value was inactive: 75%; for `COc1ccc(CCNC(=O)c2cc(=O)c3ccc(C)cc3o2)cc1OC`, inactive: 97%; for `CCCCCn1c(=O)[nH]c2cc(C(=O)NC(C)CC)ccc2c1=O` (stereo not given), inactive: 78%.
For `COc1ccc(C(=O)Nc2ccc3oc(-c4cccnc4)nc3c2)cc1OC` the value was inactive: 99%; for `CCOc1ccc(CNC(=O)c2ccc3c(c2)nc2n3CCCCC2)cc1`, inactive: 66%; for `COCCn1c(=O)[nH]c2cc(C(=O)Nc3ccc(OC)cc3)ccc2c1=O`, inactive: 138%.
With `CC(C)Oc1ccc(CNC(=O)C2CCN(Cc3cc4ccccc4n3Cc3ccccc3)CC2)cc1`, the survival is inactive: 93%.
Take `Cc1ccc2c(c1)cc(C(=O)NCc1ccccc1C)n2C`: the survival was inactive: 95%.
Turning to `CCc1cnc2c(c1SCC(=O)Nc1ccc(C(=O)OC)cc1)c(=O)n(C)c(=O)n2C`, the survival was inactive: 92%.
For `CCn1c2ccccc2c2cc(NC(=O)COc3cc(C)ccc3C)ccc21` the value was inactive: 18%.
To `Cc1cccc(Cn2c(COc3ccccc3)nc3ccccc32)c1` belongs active: -11%; to `O=C(O)c1ccc(C(=O)c2cc(C(=O)O)ccc2C(=O)O)cc1`, inactive: 110%.
As to `CC(C)(C)c1ccc(OCCOCCn2c(-c3ccc(Cl)cc3)nc3ccccc3c2=O)cc1`, the survival was inactive: 99%.
Consider `O=C(COC(=O)c1cccc(NC(=O)c2ccc(Br)cc2)c1)c1ccc(Cl)cc1`, for which the survival was inactive: 93%.
To `O=C(/C=C/c1ccccc1)Nc1nc2n(n1)C(c1ccc(F)cc1)C=C(c1ccccc1)N2` (stereo not given) belongs inactive: 59%.
On to `CC(C)Oc1ccc(CNC(=O)c2ccc(NC(=O)N3CC(C)Sc4ccccc43)cc2)cc1` (stereo not given), for which the survival was inactive: 72%.
For `Cc1cc(C)c(S(=O)(=O)NCC(c2ccco2)S(=O)(=O)c2cccs2)c(C)c1` (stereo not given) the value was inactive: 19%; for `Cc1cc(Br)cc2c1N(Cc1ccccc1OC(C)C)C(=O)C2=O`, active: 26%.
For `CC1CCc2onc(C(=O)N3CCN(c4cccc(Cl)c4)CC3)c2C1` (stereo not given) the value was inactive: 88%.
To `C=CCNC(=O)Cc1c(O)c2ccccc2[nH]c1=O` belongs inactive: 123%; to `CCc1nn2c(=O)c(S(=O)(=O)Nc3ccc(C)c(C)c3)c(C)nc2s1`, inactive: 70%; to `CCOC(=O)CNC(=O)c1cc2c(=O)n3cccc(C)c3nc2n1C`, inactive: 105%.
With `O=C1OC2(CCCC2)OC(=O)C1=Cc1ccc(N2CCOCC2)o1`, the survival is inactive: 106%.
Regarding `CCc1cccc(C)c1NC(=O)c1cnn(-c2ccc(OC)cc2)c1C1CCN(C(=O)OC(C)(C)C)CC1`, the survival is inactive: 87%.
As to `COc1ccc(NC(=O)c2nc(-c3ccc(C)cc3)n3c2CCCCC3)c(OC)c1`, the survival is inactive: 85%.
For `CCOCCc1nn2c(=O)cc(COC(=O)c3ccc(NC(=O)C(C)(C)C)cc3)nc2s1` the value was inactive: 77%.
For `O=C1OCC2=C1C(c1ccc(F)cc1)Sc1ccccc1N2` (stereo not given) the value was inactive: 120%.
To `OCCc1c[nH]c2ccc(OCc3ccccc3)cc12` belongs inactive: 110%; to `Cc1cc2oc(C(=O)N(Cc3ccco3)Cc3ccccc3Cl)c(C)c2cc1C`, inactive: 85%.
Turning to `CCCCOc1ccc(CSCCN=C(N)N)cc1`, the survival is inactive: 54%.
`Cc1ccc(SCC(=O)Nc2ccc3oc(-c4ccccc4F)nc3c2)cc1`: the survival was inactive: 74%.
To `CCOC(=O)c1ccccc1NC(=O)c1cnc(N2CCOCC2)c2ccccc12` belongs inactive: 73%.
To `COc1ccc(CNC(=O)Cn2c(-c3ccccc3)cc(C(C)=O)c2C)cc1OC` belongs inactive: 81%; to `CCN(CC)c1nn2c(=O)c(C(=O)NCc3ccc(N(C)C)cc3)cnc2s1`, inactive: 105%; to `Cc1nn(C)c(C)c1CCNC(=O)Nc1ccccc1C(F)(F)F`, active: 1%.
For `COc1ccc(N2CC(NC(=O)/C=C\c3ccccc3)CC2=O)cc1OC` (stereo not given) the value was inactive: 74%; for `O=C(NCc1cccs1)c1ccc(CSc2nc3ccncc3n2Cc2ccccc2F)cc1`, inactive: 135%; for `CCC(=O)N1CCc2cc(S(=O)(=O)NC(C(=O)NCCc3cccc(C)c3)C(C)C)ccc21` (stereo not given), inactive: 84%.
Consider `CN(Cc1ccco1)S(=O)(=O)c1nnc(NC(=O)c2ccccc2Cl)s1`, for which the survival was inactive: 84%.
To `CC(=O)Nc1cccc(NC(=O)CCn2cnc3cc(C)c(C)cc32)c1` belongs inactive: 103%; to `COc1cc(Cl)c(C)cc1Nc1nc2ccccc2n2cnnc12`, inactive: 127%.
For `CC1CCCN(CCCNC(=O)c2cc3c(Cl)nc4ccccc4c3s2)C1` (stereo not given) the value was inactive: 82%.
To `COc1ccc(C(=O)CCC(=O)Nc2ccc(C)c(Cl)c2)cc1` belongs inactive: 72%; to `CCc1ccccc1N(C)C(=O)c1sc2nc3n(c(=O)c2c1C)CCCCC3`, inactive: 67%; to `Cc1ccc(C2c3[nH]c4ccccc4c3CCN2C(=O)CSCc2ccc(F)cc2)cc1` (stereo not given), inactive: 92%.
For `O=C(NCCc1csc(-c2ccc(F)cc2)n1)c1cccc(F)c1`, the survival was inactive: 90%.
In the case of `COc1ccccc1CNC(=O)C1CCN(S(=O)(=O)c2cn(C)cn2)CC1`, the survival is active: -3%.
For `COC(=O)C1(c2ccccc2)NC(c2ccc(O)cc2)C2C(=O)N(c3ccc4c(c3)OCCO4)C(=O)C21` (stereo not given) the value was inactive: 106%; for `Cc1ccc(CN2CCCn3nc(C(=O)NCc4ccc(N(C)C)cc4)cc3C2=O)cc1`, inactive: 73%; for `COc1ccc(CCNc2nc3c(-c4cccc(C(F)(F)F)c4)nnn3c3ccccc23)cc1OC`, inactive: 83%.
To `Clc1ccc(-c2cc3ncc4c(n3n2)-c2ccccc2OC4)cc1` belongs inactive: 78%; to `O=C(Nc1ccccc1-c1nc2ccccc2s1)c1ccc(F)cc1`, inactive: 64%; to `CCN1C(=O)C(C(=O)NC(C)c2ccccc2)C2CC1(C)Oc1ccccc12` (stereo not given), inactive: 103%.
For `O=C(CSc1nc2ccsc2c(=O)n1-c1ccc(Cl)cc1)NCc1ccc(Cl)cc1` the value was inactive: 77%; for `CC1CCN(c2nc(-c3ccc(C(C)(C)C)cc3)nc3ccccc23)CC1`, active: 3%.
In the case of `CCC(=O)N1CCc2cc(S(=O)(=O)NCCC(=O)Nc3ccc(CC)cc3)ccc21`, the survival was inactive: 73%.
To `CCOc1ccc(NC(=O)c2cc3cc(C)ccc3n2C)cc1` belongs inactive: 81%; to `CC(C)CNC(=O)Nc1cc(C(=O)NCc2ccc(C(C)C)cc2)ccc1N1CCCC1`, inactive: 75%; to `CCOc1ccc(NC(=O)c2oc3ccccc3c2NC(=O)C(C)(C)C)cc1`, inactive: 33%.
To `COc1ccccc1NC(=O)CSc1oc(-c2ccco2)nc1S(=O)(=O)c1ccc(C)cc1` belongs inactive: 75%; to `COc1ccc(CCNC(=O)c2c(O)nc3ccccn3c2=O)cc1OC`, inactive: 68%.
To `O=C(CC1N=C2c3ccccc3N=C(SCC(=O)Nc3ccc(F)cc3)N2C1=O)NCc1ccco1` (stereo not given) belongs inactive: 83%; to `CCOc1ccc2nc(N3CCCC(C(=O)Nc4ccc(OC)cc4)C3)sc2c1` (stereo not given), inactive: 70%.
With `Cc1ccc(C(=O)Nc2nnc(S(=O)(=O)N(C)Cc3ccc(Cl)cc3)s2)cc1`, the survival was inactive: 124%.
To `COc1cc(Nc2ncc3c(n2)CCN(Cc2ccc(OC(C)C)c(OC)c2)C3)cc(OC)c1` belongs inactive: 127%; to `COc1ccc(NC(=O)c2csnn2)cc1Cl`, inactive: 85%; to `CCc1nn2c(=O)cc(COC(=O)c3ccc(NC(=O)COc4ccccc4C)cc3)nc2s1`, inactive: 85%.
For `Cc1ccc(NC(=O)N2CC3CCCN3c3ccccc32)cc1Cl` (stereo not given) the value was inactive: 83%.
As to `O=C(Cn1ncc2c3ccccc3n(Cc3ccccc3F)c2c1=O)N1CCCCCC1`, the survival is inactive: 77%.
For the compound `CCN1CCN(c2nnc(-n3cccc3C(=O)NCc3ccccc3OC)s2)CC1`, the survival is inactive: 64%.
For `O=C(c1noc2c1CCCCC2)N1CCN(c2cccc(Cl)c2)CC1` the value was inactive: 73%; for `Cc1ccccc1OC(=O)c1cc(-c2ccc3c(c2)OCCO3)on1`, active: -6%; for `Cc1ccc(C(C(=O)NCc2ccccc2)N(C(=O)c2snc(C(N)=O)c2N)c2ccc3c(c2)OCCO3)o1` (stereo not given), inactive: 94%.
To `COc1ccc(NC(=O)C2CCN(C3=NS(=O)(=O)C(c4ccc(C)c(C)c4)=C3C)CC2)c(OC)c1` belongs inactive: 119%; to `Cc1ccc(C)c(NC(=O)Cc2coc3cc(C)cc(C)c23)c1`, inactive: 98%.
For `O=C(NCCc1csc(-c2cccc(F)c2)n1)C(=O)Nc1cc(F)ccc1F` the value was inactive: 82%; for `COc1cccc(CNC(=O)C2CCN(S(=O)(=O)c3c(C)noc3/C=C/c3cccs3)CC2)c1`, inactive: 94%; for `COc1ccc(C)cc1NS(=O)(=O)c1cnc(N)nc1`, inactive: 60%.
Consider `O=C(c1cc2ccc3cccnc3c2[nH]1)N1CCCCC1`, for which the survival is inactive: 69%.
For `CCc1ccccc1NC(=O)Cn1nnc2sc3c(c2c1=O)CCC(C(C)(C)C)C3` (stereo not given) the value was inactive: 93%; for `CCOC(=O)c1cc2c(=O)n3ccccc3nc2n(CC2CCCO2)c1=NC(=O)c1ccccc1Br` (stereo not given), inactive: 65%.
For `CCOC(=O)Nc1ccc2c(c1)N(C(=O)CN1CCOCC1)c1ccccc1CC2` the value was inactive: 103%.
For `CCOC(=O)c1sc2ncn(CC(=O)Nc3cc(Cl)ccc3C)c(=O)c2c1C` the value was inactive: 69%; for `CC(=O)c1ccc(N2CCN(C(=O)c3cc(S(=O)(=O)N4CCCCCC4)cn3C)CC2)cc1`, inactive: 75%.
